According to PMC6919601, “Identification of Plasmodium dipeptidyl aminopeptidase allosteric inhibitors by high throughput screening” (PLoS ONE, 2019):
Hit rate of the full screen: of about 110,000 compounds, about 230 (0.21%) showed an effect of 50% or more. Some of the results follow.

Biological target: DPAP1 (Plasmodium falciparum, UniProt Q8IIJ9)
Assay: primary screen, percent inhibition; read by cleavage of a fluorogenic dipeptide substrate; higher = more effect of the substance
Design: species or system P. falciparum D10 trophozoite lysates; single well
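Also: 30 min substrate incubation versus DMSO and 10 µM JCP410 controls.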

Chain of DPAP1 (Q8IIJ9 whole entry, looked up): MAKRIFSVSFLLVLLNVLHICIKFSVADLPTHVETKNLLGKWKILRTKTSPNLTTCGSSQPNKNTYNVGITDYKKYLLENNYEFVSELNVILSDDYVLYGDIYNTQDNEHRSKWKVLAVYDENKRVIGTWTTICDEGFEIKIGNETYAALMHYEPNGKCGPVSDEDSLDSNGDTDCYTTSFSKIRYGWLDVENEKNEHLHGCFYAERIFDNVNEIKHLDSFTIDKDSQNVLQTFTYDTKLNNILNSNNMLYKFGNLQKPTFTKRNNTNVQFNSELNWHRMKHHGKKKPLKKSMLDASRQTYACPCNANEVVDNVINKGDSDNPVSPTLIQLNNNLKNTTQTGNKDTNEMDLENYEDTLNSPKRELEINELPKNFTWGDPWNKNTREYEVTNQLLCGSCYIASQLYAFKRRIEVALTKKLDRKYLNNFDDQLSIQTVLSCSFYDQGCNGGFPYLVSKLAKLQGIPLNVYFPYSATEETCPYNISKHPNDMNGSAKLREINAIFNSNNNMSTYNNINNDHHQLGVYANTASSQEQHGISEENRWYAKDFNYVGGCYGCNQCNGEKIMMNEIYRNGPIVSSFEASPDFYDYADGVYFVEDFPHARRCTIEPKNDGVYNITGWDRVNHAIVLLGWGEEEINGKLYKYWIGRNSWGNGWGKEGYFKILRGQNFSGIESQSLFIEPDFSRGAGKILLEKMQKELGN

SMILES	% Inhibition @ 10 uM
CCOC(=O)c1cnc2nc(-c3ccccc3)nn2c1O	2.62%
CCCCOc1ccccc1N1C(=O)C2=C(SCCS2)C1=O	10%
C[n+]1cnc(-c2ccccc2)cc1-c1ccccc1	-2.8%
O=C(Cc1c(O)nc2ccccc2c1O)NCCc1ccccc1	6.48%
Cc1ccc(C2C(C#N)=C(N)Oc3c2oc(CO)cc3=O)o1 (centres unmarked)	-2.78%
Cc1cccc(NS(=O)(=O)Cc2ccccc2)n1	-1.85%
Nc1nc(-c2cccnc2)nc(-c2cccnc2)n1	3.42%
Cc1ccc(N(C(=O)c2ccccc2)C2CCS(=O)(=O)C2)cc1C (centres unmarked)	6%
Cc1nn(Cc2ccccc2)c(C)c1NC(=O)c1cc(-c2ccc3c(c2)OCO3)on1	-1.21%
CCOC(=O)C1=CN(C(C)C)C=C(C(=O)OCC)C1c1ccc2c(c1)OCO2	4.99%
O=C(NC1CCCC1)c1cc2cccc3c2n1CCS3	1.98%
CCN1CCC(C#N)(NC(=O)[C@H](C[C@H](C)c2ccccc2OC)NC(=O)OCCC2CCCCC2)CC1	-1.5%
COc1ccc(Cn2nnc3c(C)nnc(O)c32)cc1	2.41%
Cc1cc(C)c(C2C(C#N)=C(N)Oc3nc(O)nc(O)c32)c(C)c1 (centres unmarked)	-2.51%
COc1ccc(N2CCN(Cc3ccccc3)CC2)cc1	1.2%
CCCCOc1ccccc1C1C(C(=O)OC)=CN(C(C)C)C=C1C(=O)OC	-5.28%
CCOc1ccccc1C(=O)Nc1ccc(F)c(F)c1	2.22%
CCCNCc1c(C(=O)O)n(Cc2ccc(F)cc2Cl)c2cc(OC)ccc12	6.94%
COC(=O)c1ccc(CSc2nn3c(SCc4ccc(C(=O)OC)cc4)nnc3s2)cc1	5.98%
Cc1nc2c3ccccc3n3c(CCCC(=O)N4CCN(C(=O)c5ccco5)CC4)nnc3n2n1	-4.69%
N#CCNC(=O)C(CCCc1ccccc1)CS(=O)(=O)Cc1ccccc1 (centres unmarked)	-5.21%
Cc1cccc(C)c1NC(=O)CNc1ccccc1	-1.97%

SMILES	% Inhibition @ 10 uM
CN1C(=O)CC(c2ccccc2)C2=C1CC(C)(C)CC2=O (centres unmarked)	-2.2%
CCc1ccc(C2=CC(c3cc(OC)c(OC)c(OC)c3)n3nnnc3N2)cc1 (centres unmarked)	-9.03%
CN(CCc1ccccn1)Cc1ccc(C(F)(F)F)cc1	3.47%
Cc1ccc(C(=O)NC2CCC(NC(=O)c3ccc(C)cc3)CC2)cc1 (centres unmarked)	-5.6%
CC(C)(c1ccccc1)c1ccc(OCCN2CCOCC2)cc1	-0.289%
CC1=C(C(=O)Nc2ccccc2C)C(c2ccccc2O)NC(=O)N1C (centres unmarked)	-5.16%
O=C(Nc1cccc2c1CCCC2)c1ccccc1Br	2.13%
COCc1nn2cc(-c3ccc(C)c(C)c3)nc2s1	6.85%
CCS(=O)(=O)c1nc(S(=O)(=O)c2ccc(Cl)cc2)c(N2CCC(O)CC2)s1	1.15%
COc1ccc(S(=O)(=O)N2Cc3ccccc3CC2C(=O)NC2CCCCC2)cc1 (centres unmarked)	2%
Cc1ccccc1CN(c1ccc(C(=O)NCC2CCCO2)cc1)S(C)(=O)=O (centres unmarked)	0.245%
Cc1onc(-c2ccccc2Cl)c1C(=O)Nc1cccc(C(=O)O)c1	-13.3%
CCOC(=O)c1c(S(=O)(=O)N2CCC(N(C)C3CCCCC3)CC2)c(C)n(C)c1C	-3.39%
COc1ccc(-n2cc(-c3ccccc3)c3c(N4CCC5(CC4)OCCO5)ncnc32)cc1	-1.62%
N#Cc1c(NC(=O)c2cc(-c3ccc4c(c3)OCO4)on2)sc2c1CCCC2	-3.77%
CCc1cc2c(Nc3ccc(OC)cc3)ncnc2s1	-2.48%
CCCC1CCC(C2=N/C(=C\c3ccc(OC)cc3)C(=O)O2)CC1 (centres unmarked)	3.8%
OC(c1ccncc1)(c1ccc(Cl)cc1)c1cc[nH]n1 (centres unmarked)	3.53%
CCOc1ccc(CCNC(=O)Cn2nc(CC)n3c(cc4sc(C)cc43)c2=O)cc1OCC	4.95%
COc1ccc(S(=O)(=O)Nc2ccc(NC(C)=O)cc2)cc1	-5.54%
CC(=O)N(CC(O)c1ccccc1)C1CC(=O)N(c2ccc(Cl)cc2)C1=O (centres unmarked)	-4.97%
CC(C)C[C@H](NC(=O)OCc1ccccc1CCc1ccccc1)C(=O)NCC#N	1.71%

SMILES	% Inhibition @ 10 uM
COc1ccc(/C=C2N=C(/C=C/c3ccc(C)cc3)OC\2=O)c(OC)c1OC	4.22%
CC1=C(c2ccc(C(C)C)cc2)S(=O)(=O)N=C1NCc1ccccc1Cl	0.623%
COc1cccc2c1NC(c1cccc(Cl)c1Cl)C1CC=CC21 (centres unmarked)	1.27%
Cc1noc(/C=C/N(C)C)c1S(=O)(=O)N1CC=C(c2ccccc2)CC1	21.8%
CC1CCCCC1NC1CCN(C)CC1 (centres unmarked)	-5.9%
Cc1ccc2nc3c(c(N)c2c1)CCN3C	0.266%
CC(C)(C)NS(=O)(=O)c1ccc(OCC(=O)N2CCCCC2)cc1	3.04%
COc1cccc(OC)c1C(=O)Nc1cc(Cl)c(Cl)cc1Cl	1.38%
COc1ccc(-c2cc(-c3ccccc3)nc(SC)c2C#N)cc1	-0.216%
COC(=O)/C(C#N)=C/c1ccc(C)o1	-0.256%
FC(F)(F)C1=NC(C(F)(F)F)N=C(c2ccccc2)N1 (centres unmarked)	-3.92%
CCOC(=O)c1[nH]c(C)c(C(=O)N(C)C)c1C	-1.66%
CCOC(=O)c1ccc(S(=O)(=O)N2CCOCC2)cc1	13%
COc1ccc(C(=O)Nc2ccc(C(=O)NCc3ccco3)cc2)cc1	-6.33%
O=C(Nc1ccc(-c2nc3ncccc3o2)cc1)c1cccc2ccccc12	-0.865%
O=C(Nc1cccnc1Cl)C1CCCN(c2ncnc3c2nc2n3CCCCC2)C1 (centres unmarked)	5.05%
Cc1cc(C)c(S(=O)(=O)NCC(=O)Nc2ccc(C(N)=O)cc2)c(C)c1	-2.8%
C=C(C)CSc1nc(N)c2c3c(sc2n1)COC(C(C)C)C3 (centres unmarked)	0.643%
COc1ccc(C2CC(C(F)(F)F)n3nc(C(=O)NCc4ccccc4Cl)cc3N2)cc1OC (centres unmarked)	7.79%
COc1ccc2oc(=O)cc(CN(C)Cc3ccccc3)c2c1	-3.49%
N#Cc1nc(/C=C/c2ccc(F)cc2)oc1N1CCC(C(N)=O)CC1	-0.808%
